Data from PubChem BioAssay AID1963576 (National Center for Advancing Translational Sciences (NCATS), 2024).
The whole screen tested about 46,000 compounds, of which about 60 (0.1%) were called active. Inconclusive results (about 3%) are left out. Calls come from the whole dose curve; as a rule, active = well fitted inhibition curve with a large enough effect; inconclusive = small, poorly fitted or top-dose-only effect; inactive = no such curve, though single readings can be large or run the other way. Some of the results follow.

Assay: Primary qHTS assay for Inhibitors of ovarian cancer metastasis using an organotypic tumor microenvironment (TME) model.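 For activity change, negative = inhibition: plate controls were DMSO wells for no effect and tomatine positive control wells for full effect.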 Note: nearly all actives have a fitted effect of over 65% in size.
Details: SKOV3ip1-GFP adhesion/invasion on 3D omental model, fluorescence; series mostly up to 45.8 µM; activity change, negative = inhibition: at the top concentration
Procedure, shortened: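 qHTS, 4-pt dose (0.36-46 umol/L); SKOV3ip1-GFP, 1,200 cells/well, no FBS; primary omental fibroblast/mesothelial co-culture 48 h pre-grown; 2 h RT + 16 h 37 C; PBS wash, 4% PFA; GFP count 488/509 nm.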

Activity change, negative = inhibition, inactive:
CCOc1ccccc1N(C)C(=O)c1c2c(nc3ccccc13)C(=O)N(C1CCCCC1)C2 -20%
Cc1ccc2c(=O)cc(C(=O)Nc3sc4c(c3C(=O)NCC3CCCO3)CCCC4)oc2c1 (stereo not given) -2.67%
COc1ccc(C2CC(=O)c3cc(-c4nc(-c5cccc(Cl)c5)cs4)c(=O)[nH]c3C2)cc1 (stereo not given) 18.8%
CCC(Sc1nc2ncccc2o1)C(=O)Nc1ccc(OC)c(OC)c1 (stereo not given) -8.32%
O=C(NCc1ccccc1)C(=O)Nc1c2c(nn1-c1ccccc1)CSC2 -1.31%
O=C(Cn1ncc2c3ccccc3n(Cc3ccc(F)cc3)c2c1=O)NCc1ccccn1 6.62%
Cc1ccc(SCC(=O)Nc2ccc3oc(-c4cccc(Cl)c4)nc3c2)cc1 -14.6%
COc1cc2c(cc1Cc1cccc(Cl)c1F)c(=O)c(C(=O)O)cn2[C@H](CO)C(C)C -13.3%
O=C(Nc1sc2c(c1C(=O)NCC1CCCO1)CCCC2)c1cc(=O)c2ccccc2o1 (stereo not given) 1.9%
O=C(CCn1c(=O)c2sccc2n(Cc2ccc(F)cc2Cl)c1=O)NCc1ccc2c(c1)OCO2 -2.39%
Cc1ccc(-c2nc3ccccc3o2)cc1NC(=O)Cc1ccc(Cl)cc1 9.09%
Cc1ccccc1CCNC(=O)c1ccc2c(c1)nc1n2CCCCC1 -27.9%
COc1ccc2cc3[n+](cc2c1OC)CCc1cc2c(cc1-3)OCO2 -7.21%
CCOC(=O)c1cccc(NC(=O)c2cnc3sc(N4CCOCC4)nn3c2=O)c1 -3.21%
Cc1cc(OCCCc2c(C(=O)O)n(Cc3cccnc3)c3c(-c4c(COc5ccc(N6CCN([S+](C)(=O)[O-])CC6)cc5)nn(C)c4C)cccc23)cc(C)c1Cl -2.51%
COC(=O)c1ccccc1NC(=O)CSc1nc(C)c(Cl)c(C)c1C#N 0.673%
CC(C)NC(=O)CN1C(=O)CCn2nc(-c3cn(C)c4ccccc34)cc21 -2.3%
Cc1ccccc1Cn1c(=O)n(-c2ccc(Cl)cc2)c(=O)c2c3c(sc21)CCCC3 -12.6%
CCC(C)NC(=O)c1sc2nc(C)c(C(=O)Nc3ccc(C)cc3C)c(-c3ccc(NC(C)=O)cc3)c2c1N (stereo not given) -1.39%
COCCNC(=O)CCCn1c(SCC(=O)NCc2ccc(C)cc2)nc2c(sc3ccccc32)c1=O 1.58%
COCCNc1ccc2cc(S(=O)(=O)N3CCCCC3)ccc2n1 8.4%
Cc1ccc2nc(NC(=O)CSc3nccn3Cc3ccc(F)cc3)sc2c1 -20.2%
O=C(O)c1ccc(Cn2c(SCc3ccc(F)cc3)nc3ccncc32)cc1 8.16%
Cc1ccccc1NC(=O)c1sc2nc3c(cc2c1N)CN(Cc1ccccc1)CC3 -11.7%
COc1ccc(OC)c(S(=O)(=O)NCC(c2cccs2)S(=O)(=O)c2ccc(F)cc2)c1 (stereo not given) -2.01%
Cc1ccc(-c2noc(-c3nnn(-c4cccc(C(F)(F)F)c4)c3N)n2)cc1 -5.68%
COc1ccc(-c2nn(-c3ccccc3)cc2C2NC(=O)NC(C)=C2C(=O)OC(C)C)cc1OC (stereo not given) -1.91%
COc1ccccc1CNc1ncnc2c1cnn2-c1ccc(C)cc1 -1.52%
COc1ccc2c(c1)c1c(c(=O)n(-c3cccc(C)c3)c(=O)n1Cc1cccc(Cl)c1)n2C -16.2%
O=C(c1cc2c(=O)oc3ccccc3c2s1)N1CCN(c2ccccc2)CC1 24.6%
Cc1ccc(-n2nc(C)c3c(C)cc(=O)n(CC(=O)Nc4cccc(C)c4C)c32)cc1 -21.8%
Cc1nc(-n2nc(C)c(CCC(C)C)c2C)sc1C(=O)Nc1ccc(Cl)cc1 -14.8%
O=S(=O)(c1ccc2nc(N3CCN(c4ccccc4F)CC3)ccc2c1)N1CCCCC1 0.646%
Cc1ccc(CN2CCCn3nc(C(=O)NCCc4cccc(C)c4)cc3C2=O)cc1 -16.2%
CCc1nc(SC)ncc1C(=O)N1CCN(c2cc(C)ccc2C)CC1 -10.5%
Cc1ccc(CNC(=O)c2ccc3c(O)c(S(=O)(=O)c4ccc(Cl)cc4)c(=O)[nH]c3c2)cc1 1.1%
COc1ccc(CCNCc2ccc3c(c2)n(C)c(=O)n3C)cc1OC 1.12%
Cc1ccc(CN2CCCn3nc(C(=O)NCCc4ccccc4Cl)cc3C2=O)cc1 7.15%
CCc1ccccc1NC(=O)CSc1nc2c(oc3ccccc32)c(=O)n1C 3.28%
Cc1ccc(-c2nc(N3CCCC(C)C3)c3ccccc3n2)cc1 (stereo not given) 11.7%
CCOc1ccc(N2CC(NC(=O)C3CC3)CC2=O)cc1 (stereo not given) -14.3%

outcome, inactive:
CCC1CN(C(=O)N2CCC(C(=O)N3CCN(c4ccccc4F)CC3)CC2)c2ccccc2O1 (stereo not given)
Cc1cc(-c2ccc(C)c(S(=O)(=O)NCC3CCN(Cc4ccccc4F)CC3)c2)on1
Cc1ccc(C(c2c(O)cc(C)n(Cc3ccco3)c2=O)N2CCC(C)CC2)cc1 (stereo not given)
COc1ccc(OC)c(CNCc2c(C(=O)O)n(Cc3cccc(F)c3)c3cc(OC)ccc23)c1
Cc1cc(C)cc(NC(=O)C2CC(=O)N(c3ccccc3)C2)c1 (stereo not given)
Cc1ccc2c(c1)c1c(c(=O)n(Cc3ccccc3)c(=O)n1CC(=O)Nc1ccccc1F)n2C
Cc1ccc(-c2cc(C(=O)Oc3ccc(C#N)cc3)no2)cc1C
COc1ccc(Cn2c(C(=O)O)c(CNCc3ccc(SC)cc3)c3ccc(OC)cc32)cc1
CCc1ccc(NS(=O)(=O)c2[nH]ncc2C(=O)OC)cc1
COc1cccc(N2CCN(C(=O)CN3CCSc4ccccc43)CC2)c1
CCCS(=O)(=O)N1CCC(C(=O)NCCOC)CC1
Cc1cc(F)ccc1NC(=O)C1CCC(CNS(=O)(=O)c2ccc3c(c2)CCCC(=O)N3)CC1 (stereo not given)
O=C(Nc1cc2c(cc1C(=O)c1ccccc1Br)OCCO2)c1cccc(Cl)c1
COc1ccc(N2C(=O)CSC23C(=O)N(Cc2cccc(F)c2)c2ccccc23)cc1Cl (stereo not given)
Cc1ccc(NC(=O)c2ccc(=O)n(Cc3ccccc3C)c2)c(C)c1
CCOC(=O)c1c(S(=O)(=O)N2CCCC(C(=O)NCc3ccccc3OC)C2)c(C)n(C)c1C (stereo not given)
Cc1nn(C)c2c1c(-c1ccccc1)cc(=O)n2CC(=O)NC(C)C
COc1cccc(CNC(=O)C2CCCN(c3nc4ccccc4n4cccc34)C2)c1 (stereo not given)
NC(=O)C1CCN(S(=O)(=O)c2ccc(N3CCCCS3(=O)=O)cc2)CC1
